The numbers were not newly measured in patent US20230117205A1, “B7-H4 ANTIBODY-DRUG CONJUGATES FOR THE TREATMENT OF CANCER” (SEAGEN INC., priority 2021, published 2023), which cites them from elsewhere.

The conditions of this series: Phase 1 clinical trial; cited from earlier work.

B1: B7H41001 (antibody)
heavy: QLQLQESGPGLVKPSETLSLTCTVSGGSIKSGSYYWGWIRQPPGKGLEWIGNIYYSGSTYYNPSLRSRVTISVDTSKNQFSLKLSSVTAADTAVYYCAREGSYPNQFDPWGQGTLVTVSS[human IgG1 constant region not listed]
light: EIVMTQSPATLSVSPGERATLSCRASQSVSSNLAWYQQKPGQAPRLLIYGASTRATGIPARFSGSGSGTEFTLTISSLQSEDFAVYYCQQYHSFPFTFGGGTKVEIKRTVAAPSVFIFPPSDEQLKSGTASVVCLLNNFYPREAKVQWKVDNALQSGNSQESVTEQDSKDSTYSLSSTLTLSKADYEKHKVYACEVTHQGLSSPVTKSFNRGEC
modifications: non-natural residues; cyclised or stapled
In the case of B1, the safety profile result is “favorable safety profile”.
